According to the supplement of paper PMC10126150:
Values marked as one replicate rest on one cluster of the flow cell; about a third of the high ones do not repeat.
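Further: ATP exposure 15 min at 22 °C before imaging.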

The sequences below were run on ATP (assay: switch fluorescence ratio, 500 uM ATP over buffer (Cy3 cluster intensity, sum of 5 cycles each) (fold (ratio)); higher = stronger signal-on switching upon ATP binding; sequences stand for … in TCGTCGGCAGCGTCAGATGTGTATAAGAGACAGTTTTTTTTTTTTTTTTTTTTTTTTT…TC). Conditions: aptamer strand: ATP DNA aptamer (quencher-CACCTGGGGGAGTATTGCGGAGGAAGG + anchor), 100 nM annealed; ATP concentration: 500 uM; one replicate.
Procedure, shortened: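 Imaging in selection buffer was followed by imaging after 15 min with 500 uM ATP at 22 °C, for Cy3-labelled switching-strand clusters annealed to 100 nM quencher-labelled ATP aptamer on a modified Illumina MiSeq flow-cell. Five of these buffer/ATP cycles ran, separated by NaOH stripping and re-annealing. The fluorescence ratio per cluster is summed target-cycle over summed buffer-cycle Cy3 intensity, averaged per switch-domain sequence; clusters outside 100-1000 RFU were removed.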
CCTGTTTCCA showed a switch fluorescence ratio of 0.998. CCTTACTCTT showed a switch fluorescence ratio of 1.41. Work on CCTTAGGGCA yielded a switch fluorescence ratio of 1.02. In the case of CCTTAGTGAG, the switch fluorescence ratio is reported as 1.03. In the case of CCTTATGGAG, the switch fluorescence ratio is reported as 1.04. In the case of CCTTCAATAT, the switch fluorescence ratio is reported as 3.41. CCTTCCCCGG was tested, and the switch fluorescence ratio was 1.33. For CCTTCGAGTG, the switch fluorescence ratio was 1.27. In the case of CCTTCGGCCC, the switch fluorescence ratio is reported as 4.19. In the case of CCTTCTACGT, the switch fluorescence ratio is reported as 1.52. CCTTGAAATG was tested, and the switch fluorescence ratio was 1.06. CCTTGACGTG showed a switch fluorescence ratio of 0.989. With CCTTGAGATG the switch fluorescence ratio was 1.03. For CCTTGCATGG, the switch fluorescence ratio was 1.58. In the case of CCTTGCCCCG, the switch fluorescence ratio is reported as 1.06. With CCTTGGACT the switch fluorescence ratio was 0.993. Sequence CCTTGGCGAG has a switch fluorescence ratio of 1.18. CCTTGGGCGT showed a switch fluorescence ratio of 1.04. With CCTTGTTGAA the switch fluorescence ratio was 0.971. With CCTTTAAGGA the switch fluorescence ratio was 0.989. In the case of CCTTTAGAAA, the switch fluorescence ratio is reported as 1.03. Sequence CCTTTCCGAT has a switch fluorescence ratio of 1.44. For CCTTTCGACG, the switch fluorescence ratio was 1.03. With CCTTTTATGA the switch fluorescence ratio was 1.02. In the case of CGAAACAAAG, the switch fluorescence ratio is reported as 1.05. CGAAACGAAC showed a switch fluorescence ratio of 1.09. For CGAAACTGTT, the switch fluorescence ratio was 1.08. CGAAACTTAG was tested, and the switch fluorescence ratio was 0.997. With CGAAAGAAAA the switch fluorescence ratio was 0.939. Sequence CGAAAGCTGG has a switch fluorescence ratio of 0.978. CGAAATTGTA showed a switch fluorescence ratio of 0.976. CGAACACAG was tested, and the switch fluorescence ratio was 1.08. For CGAACACCTG, the switch fluorescence ratio was 1.04. For CGAACGACAT, the switch fluorescence ratio was 1.32. In the case of CGAACGCTGA, the switch fluorescence ratio is reported as 2.87. In the case of CGAACGTCCG, the switch fluorescence ratio is reported as 0.984. With CGAACTAAAG the switch fluorescence ratio was 1. CGAAGCCGTG was tested, and the switch fluorescence ratio was 0.978. CGAAGCGTAA was tested, and the switch fluorescence ratio was 2.54. CGAAGCGTGG was tested, and the switch fluorescence ratio was 1.02. CGAAGGATAT gave a switch fluorescence ratio of 1.05. Sequence CGAAGTCGGA has a switch fluorescence ratio of 1.02. Sequence CGAAGTTACC has a switch fluorescence ratio of 1.17. Sequence CGAAGTTACT has a switch fluorescence ratio of 1.04. Sequence CGAATACC has a switch fluorescence ratio of 1.12. CGAATATTCA showed a switch fluorescence ratio of 1.01. CGAATCATCG was tested, and the switch fluorescence ratio was 1.02. For CGAATCCTCT, the switch fluorescence ratio was 1.01. CGAATCCTTA showed a switch fluorescence ratio of 1.01. Sequence CGAATCGCAG has a switch fluorescence ratio of 1.1. Sequence CGAATCTGGT has a switch fluorescence ratio of 1. CGAATGGGAG showed a switch fluorescence ratio of 1.01. CGAATGTGTG gave a switch fluorescence ratio of 0.98. Work on CGAATTACTC yielded a switch fluorescence ratio of 2.43. Work on CGAATTATGC yielded a switch fluorescence ratio of 1.1. Sequence CGAATTTGCG has a switch fluorescence ratio of 0.963. In the case of CGACAAAGCG, the switch fluorescence ratio is reported as 1.01. Sequence CGACAAGTTG has a switch fluorescence ratio of 1.07. For CGACACCGCT, the switch fluorescence ratio was 1.25. Sequence CGACACTGTT has a switch fluorescence ratio of 1.09. For CGACAGGTCA, the switch fluorescence ratio was 1.04. Sequence CGACCATTCT has a switch fluorescence ratio of 1.14. CGACCGACTA was tested, and the switch fluorescence ratio was 1.35. In the case of CGACCGCCCC, the switch fluorescence ratio is reported as 2.78. For CGACCGTGCC, the switch fluorescence ratio was 1.4. In the case of CGACGGAAAA, the switch fluorescence ratio is reported as 1.06. For CGACGTGCC, the switch fluorescence ratio was 1.11. In the case of CGACTAGCTA, the switch fluorescence ratio is reported as 1.29. In the case of CGACTAGTTT, the switch fluorescence ratio is reported as 0.989. Sequence CGACTGACCG has a switch fluorescence ratio of 1.05. Work on CGACTGGTGT yielded a switch fluorescence ratio of 1.2. CGACTGTTGT gave a switch fluorescence ratio of 0.964. For CGACTTCCTA, the switch fluorescence ratio was 1.16. For CGAGAAAATC, the switch fluorescence ratio was 1.03. Work on CGAGAGATGA yielded a switch fluorescence ratio of 1.01. CGAGAGTCTG was tested, and the switch fluorescence ratio was 0.954. With CGAGCCCGT the switch fluorescence ratio was 1.02. Work on CGAGCGGCCT yielded a switch fluorescence ratio of 1.02. CGAGCGGGG gave a switch fluorescence ratio of 1.02. With CGAGCTATCG the switch fluorescence ratio was 1.03. CGAGCTCATA was tested, and the switch fluorescence ratio was 1.03. CGAGGAAAAC showed a switch fluorescence ratio of 1.09. With CGAGGCGCGG the switch fluorescence ratio was 0.983. CGAGGCTCAT showed a switch fluorescence ratio of 1.07. CGAGGCTGGT gave a switch fluorescence ratio of 1.05. Work on CGAGGTAATT yielded a switch fluorescence ratio of 1.32. Sequence CGAGGTACCG has a switch fluorescence ratio of 0.826. CGAGGTGTCT gave a switch fluorescence ratio of 0.987. CGAGTAGG gave a switch fluorescence ratio of 1.02. For CGAGTAGGCC, the switch fluorescence ratio was 1.07. Work on CGAGTCTGTA yielded a switch fluorescence ratio of 0.997. In the case of CGAGTGAGAG, the switch fluorescence ratio is reported as 0.997. Work on CGAGTGGAGC yielded a switch fluorescence ratio of 1.02. Work on CGAGTTACAC yielded a switch fluorescence ratio of 1.06. CGAGTTATAC was tested, and the switch fluorescence ratio was 1.34. With CGAGTTATTT the switch fluorescence ratio was 0.986. In the case of CGAGTTTCGA, the switch fluorescence ratio is reported as 1.01. In the case of CGATAAAGTG, the switch fluorescence ratio is reported as 0.957. For CGATAAATGA, the switch fluorescence ratio was 1.01. CGATAACGCT showed a switch fluorescence ratio of 1.02. CGATAGAAAT showed a switch fluorescence ratio of 1.01. CGATAGAGGG gave a switch fluorescence ratio of 0.963. For CGATAGTACG, the switch fluorescence ratio was 0.989. CGATAGTTCT showed a switch fluorescence ratio of 0.957. Sequence CGATATACT has a switch fluorescence ratio of 1.57. CGATATGCCC showed a switch fluorescence ratio of 0.992. CGATATTGGA gave a switch fluorescence ratio of 0.987. CGATCAAACG showed a switch fluorescence ratio of 1. CGATCAGTGT gave a switch fluorescence ratio of 0.975. For CGATCCCGTT, the switch fluorescence ratio was 0.996. Sequence CGATCGACAT has a switch fluorescence ratio of 1.03. In the case of CGATCGCAAA, the switch fluorescence ratio is reported as 4.77. CGATCGCTT was tested, and the switch fluorescence ratio was 2.03. Sequence CGATCTAAGG has a switch fluorescence ratio of 1. In the case of CGATCTTCGC, the switch fluorescence ratio is reported as 1.07. In the case of CGATGACTCC, the switch fluorescence ratio is reported as 1.43. For CGATGCGGA, the switch fluorescence ratio was 1.09. Sequence CGATGCTAGC has a switch fluorescence ratio of 1.28. CGATGCTTGG was tested, and the switch fluorescence ratio was 1.03. Sequence CGATGGAGAT has a switch fluorescence ratio of 1.02. Work on CGATGGGGCG yielded a switch fluorescence ratio of 0.963. With CGATGTGCCA the switch fluorescence ratio was 1.07. CGATTACCTA was tested, and the switch fluorescence ratio was 1.04. CGATTATAAT gave a switch fluorescence ratio of 0.975. Work on CGATTCCCGC yielded a switch fluorescence ratio of 1.26. CGATTCTTTC was tested, and the switch fluorescence ratio was 0.991. CGATTGAGAT was tested, and the switch fluorescence ratio was 1.02. For CGATTGAGTA, the switch fluorescence ratio was 0.927. For CGATTGGTT, the switch fluorescence ratio was 0.921. CGATTGTCTC gave a switch fluorescence ratio of 0.953. Sequence CGATTGTGTT has a switch fluorescence ratio of 0.973. CGATTTAGCA gave a switch fluorescence ratio of 1.08. CGCAAAACCC showed a switch fluorescence ratio of 4.71. CGCAAAGAGT showed a switch fluorescence ratio of 1.21. CGCAACAGGA was tested, and the switch fluorescence ratio was 1.35. CGCAATCGCG showed a switch fluorescence ratio of 1.26. In the case of CGCACATAAG, the switch fluorescence ratio is reported as 1.36. Work on CGCACATGCA yielded a switch fluorescence ratio of 1.26. In the case of CGCACCTAAA, the switch fluorescence ratio is reported as 1.08. Sequence CGCACGCTTG has a switch fluorescence ratio of 1.02. Sequence CGCACTTGGA has a switch fluorescence ratio of 1.03. With CGCAGAAAAA the switch fluorescence ratio was 1.04. For CGCAGAATAA, the switch fluorescence ratio was 1.24. For CGCAGAGGCC, the switch fluorescence ratio was 1.11. Sequence CGCAGATGGT has a switch fluorescence ratio of 1.09. In the case of CGCAGATTTC, the switch fluorescence ratio is reported as 1.19. In the case of CGCAGGAGCG, the switch fluorescence ratio is reported as 0.981. In the case of CGCAGGCTCA, the switch fluorescence ratio is reported as 2.28. CGCAGGCTTT gave a switch fluorescence ratio of 1.1. For CGCAGGGTGA, the switch fluorescence ratio was 1.02. Work on CGCAGGTGAA yielded a switch fluorescence ratio of 1.8. With CGCAGTGTGG the switch fluorescence ratio was 0.982. CGCATAAGA was tested, and the switch fluorescence ratio was 1.1.
